These results are taken from PubChem BioAssay AID463173 (ICCB-Longwood Screening Facility, Harvard Medical School, 2010).

Screen size: about 52,000 compounds; about 1,700 (3.3%) were called active. Cut-off read from the data, not from the text of the source: active = survival mostly below about 52% (no sharp cut-off); inactive = mostly above about 56%. Some of the results follow.

The test deals with Wild type. In words: growth inhibition of S. aureus wild type versus tarO mutant, primary screen, teichoic acid synthesis inhibitors, RN4220, OD600 (AID 463173). To be noted: S. aureus RN4220 wild type/DeltatarO growth, OD600, 18 h, active compounds read low, screened at 18.75 µg/mL (by protocol).
Regarding `COc1cccc(C(=O)Nc2nnc(S(=O)(=O)N3CCCC3)s2)c1`, the survival is inactive: 68%.
As for `Cc1ccc(Cn2cnc3nc4c(cc3c2=O)CC(C)CC4)cc1` (stereo not given), the survival is active: -3%.
On to `CC(C)c1ccc(S(=O)(=O)c2cnc(SCC(=O)Nc3ccc4c(c3)OCCO4)[nH]c2=O)cc1`, for which the survival is inactive: 71%.
`O=C(O)c1ccc(NC(=O)c2cc(S(=O)(=O)N3CCCCC3)c(Cl)cc2Cl)cc1`: the survival is inactive: 136%.
As for `Cc1cccc(C(=O)NNc2ncnc3c2cnn3-c2ccc(C)cc2C)c1`, the survival is inactive: 124%.
Take `CCOc1ccccc1CNC(=O)CCCn1ccc2cc(S(=O)(=O)N3CCCC3)ccc21`: the survival is inactive: 76%.
With `CCCNC(=O)CN1C(=O)CSc2ccc(S(=O)(=O)N3CCC(C)CC3)cc21`, the survival is inactive: 85%.
For `Cc1ccc(Nc2c(C(C)C)c(C)c(C#N)c3nc4ccccc4n23)cc1`, the survival was inactive: 70%.
Regarding `O=C(CNCc1ccco1)Nc1ccccc1-n1cccc1`, the survival was inactive: 111%.
On to `CCC(C)NC(=O)CCCc1nnc2n(CC(C)C)c(=O)c3sccc3n12` (stereo not given), for which the survival is inactive: 100%.
Take `COc1ccc2c(c1)CCc1c(C(=O)Nc3c(C)nn(Cc4ccccc4)c3C)noc1-2`: the survival was inactive: 92%.
As for `Cc1ccccc1-c1noc(-c2ccc(NCc3ccco3)c([N+](=O)[O-])c2)n1`, the survival is inactive: 82%.
As to `CCOc1ccc(NC(=O)c2cc(S(=O)(=O)NC3CCCCCC3)ccc2F)cc1`, the survival is inactive: 69%.
Under `CCOc1ccc(-n2c(=O)c3c(C)c(C)sc3n(CC(=O)NCCc3ccccc3)c2=O)cc1` stands inactive: 87%; under `CCOc1ccccc1NC(=O)CSc1nccn1-c1cccc(C)c1`, inactive: 88%; under `Cc1ccc(NC(=O)/C=C\C(=O)N(c2ccc(C(C)C)cc2)C(C(=O)NCc2ccco2)c2ccc(F)cc2)cc1` (stereo not given), inactive: 59%.
As to `COc1ccc2c(Sc3ccc(C)cc3)c(C(=O)NC(C)C)[nH]c2c1`, the survival was inactive: 85%.
Regarding `COCCCNC(=O)c1nn(-c2ccc(C)cc2)nc1CO`, the survival was inactive: 86%.
Take `O=c1oc2ccccc2c(N2CCN(c3ccccc3F)CC2)c1CN1CCCC1`: the survival is inactive: 82%.
On to `Cc1ccc(S(=O)(=O)C(CNC(=O)C(=O)NCCc2ccccc2)c2cccs2)cc1` (stereo not given), for which the survival was inactive: 136%.
To `CCOc1ccc(C2CC(=O)c3c([nH]c(C(=O)OCC4CCCCC4)c3C)C2)cc1` (stereo not given) belongs inactive: 81%; to `CCCc1cc(=O)oc2cc(C)c3c(-c4ccccc4)coc3c12`, inactive: 66%.
Regarding `COc1cccc(NC(=O)C(Cc2ccccc2)NS(=O)(=O)c2ccc3c(c2)c(=O)n(C)c(=O)n3C)c1` (stereo not given), the survival is inactive: 72%.
On to `Cc1cccc(CNC(=O)Cn2ccc3cc(S(=O)(=O)N4CCCCCC4)ccc32)c1`, for which the survival was active: -6%.
On to `Cc1ccc(NC(=O)CC2Nc3ccccc3NC2=O)cc1C` (stereo not given), for which the survival was inactive: 74%.
For the compound `O=C(CN1C(=O)CSc2ccc(S(=O)(=O)N3CCCC3)cc21)Nc1cccc(Cl)c1`, the survival was inactive: 95%.
In the case of `COc1ccc(CCNC(=O)c2ccc(Cn3c(=O)c4ccccc4n(CC(=O)C(C)(C)C)c3=O)cc2)cc1OC`, the survival was inactive: 96%.
With `COc1cc(NC(=O)CCn2nc(C)c(S(=O)(=O)N3CCCCC3)c2C)cc(OC)c1OC`, the survival was inactive: 136%.
Consider `Cc1ccccc1C(=O)N(Cc1sccc1C)C1CCS(=O)(=O)C1` (stereo not given), for which the survival was inactive: 87%.
As for `CC1CCCCN1CCCNC(=O)CN1C(=O)c2cccnc2Oc2ccccc21` (stereo not given), the survival is inactive: 119%.
Turning to `COc1ccc(Cl)cc1NC(=O)c1c(NCc2cccnc2)sc2c1CCC(C)C2` (stereo not given), the survival was inactive: 74%.
To `Cc1ccc(Cl)cc1NC(=O)CCCn1c(=O)c2cccn2c2cccnc21` belongs inactive: 88%; to `COc1ccccc1NC(=O)C1=C(C)Nc2c(C(=O)Nc3cccc(C)c3)cnn2C1c1ccccc1Cl` (stereo not given), active: -6%.
To `C=CCN1C(=O)C2C(C(=O)NCc3ccccc3)C3C=CC2(O3)C1C(=O)NC1CCCC1` (stereo not given) belongs inactive: 105%.
Regarding `CCN1CCN(C(c2ccc(SC)cc2)c2c(O)cc(C)n(CCOC)c2=O)CC1` (stereo not given), the survival was inactive: 128%.
Under `CCCCN(CC)C(=O)C1CCCN(c2ncnc3onc(C)c23)C1` (stereo not given) stands inactive: 92%; under `COCCCNC(=O)c1ccc(Cn2c(=O)c3ccccc3n(Cc3c(C)cc(C)cc3C)c2=O)cc1`, inactive: 92%; under `CCOC(=O)c1ccc(CN(Cc2ccc(Br)cc2)S(=O)(=O)c2cccc(Cl)c2C)cc1`, inactive: 82%.
To `O=c1cc(-c2ccc(F)cc2)nc(SCc2nc(-c3ccc(Cl)cc3)no2)[nH]1` belongs inactive: 88%; to `CCOC(=O)c1c(C)[nH]c(C)c1S(=O)(=O)NCC(=O)NCc1cccc(C)c1`, inactive: 159%.
`COc1cc(C(=O)NCC(c2ccc(Cl)cc2)N2CCOCC2)cc(OC)c1OC` (stereo not given): the survival was inactive: 79%.
With `N#CC(C#N)=Cc1cn(CCOc2ccc3c(c2)OCO3)c2ccccc12`, the survival is inactive: 105%.
Turning to `CCc1ccc(C2C(C(=O)Nc3ccccc3C)=C(C)Nc3nc(SCc4cccc(OC)c4)nn32)cc1` (stereo not given), the survival is inactive: 146%.
`CCOC(=O)CC(NC(=O)Cn1nnc(-c2ccccc2F)n1)c1ccccc1Cl` (stereo not given): the survival was inactive: 89%.
Regarding `CCS(=O)(=O)c1ncc(N(Cc2ccco2)Cc2ccccc2F)c(C(=O)Nc2cccc(Cl)c2)n1`, the survival is inactive: 84%.
Turning to `O=C(Cn1c(=O)nc(-c2ccccc2)c2ccccc21)NCc1ccccc1Cl`, the survival was inactive: 73%.
For `Cc1ccc(N2CCN(C(=O)c3cn(C)c4ccc(S(=O)(=O)N(C)C)cc4c3=O)CC2C)cc1` (stereo not given), the survival is inactive: 131%.
With `CC(=O)c1ccc(NC(=O)CSc2nc(=O)n(Cc3ccncc3)c3c2CCC3)cc1`, the survival was inactive: 68%.
To `CC(C)(Oc1ccc(Br)cc1)C(=O)Nc1cc(-c2nc3ccccc3[nH]2)ccc1Cl` belongs inactive: 79%; to `O=C(CN1N=C(c2ccc(Cl)cc2)CCC1=O)NCCc1ccccc1`, inactive: 73%; to `CCc1c(C)nc2nncn2c1NCc1ccc(Cl)cc1`, inactive: 87%.
As to `Cc1ccc(NC(=O)Cn2nc(Cc3ccncc3)c3ccccc3c2=O)c(Cl)c1`, the survival was inactive: 85%.
In the case of `COc1ccccc1CNC(=O)CN1N=C(c2ccccc2)CCC1=O`, the survival was inactive: 134%.
As for `CCOc1ccc(NC(=O)c2oc3ccccc3c2NC(=O)c2ccc(OC)cc2OC)cc1`, the survival is inactive: 68%.
To `COc1cc(CNCCSc2nnnn2C)cc(Cl)c1OCc1ccccc1` belongs inactive: 59%.
